# From the supplement of paper PMC11417369
# Some of the results follow.
# Tested on: PfSIP2 AP2 domain 1 (GST-tagged)
# Test: gcPBM binding intensity (ln(normalized median fluorescence intensity)); higher = stronger DNA binding
# How it was run: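 GST-tagged P. falciparum DNA-binding domains, expressed in E. coli (about 25 μg on average), were applied for 1 h to an Agilent 4 × 180k array of primer-extended double-stranded 36-bp intergenic genomic probes plus negative controls. The binding buffer was 1× PBS with 1% milk, 0.2 mg/ml BSA, 0.5% salmon testes DNA and 0.03% Triton X-100. Bound protein was detected with Alexa488 anti-GST antibody and scanned at 488 nm. Binding intensity is the highest Masliner-normalised natural-log median intensity across replicate spots of either probe orientation.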
row,Sequence,gcPBM binding intensity (ln)
1,TATTTATACACGCACACACACTTATACATTTATATA [CACACA_site7543],7.47
2,TTTCTTTTTTAGAGGTGTACACGTAGGCCTCTTGGA [XGTACX_site4760],7.3
3,TTAGATATTAATATATGTACATATTAATATATTTAC [XGTACX_site7119],6.9
4,TAAATGTAAAACGAAATGCACACTATGGAAAATATA [CACACA_site724],8.68
5,GGAATATTATTTCAATGTACATTTTGAGATTAGAAT [XGTACX_site8187],7.02
6,ATTATTATTTTACGTAGTACATATAATAAATATTTA [XGTACX_site8934],6.86
7,TTATTTCTAATTCGTTGTACAATATATAATATATAT [XGTACX_site5861],7.34
8,TATCCATATTTGTTCACACACACACGGATTTATATA [CACACA_site7649],7.13
9,TTGATAGACACATGCACACATGCAATACTTTATTCA [CACACA_site3000],8.16
10,TAGGTGTTAAAAAATACACACACAAAAAAAAAAAAA [CACACA_site7927],7.01
11,ACATTTTTGGTTTTAGTGCAATATGAATTATTTTAT,7.85
12,TCTTCCATTTTTATTACACACATAAATATGAAATCG [CACACA_site3471],7.26
13,CCTTTAAGCAAAAACACACACACATATATATATATA [CACACA_site348],9.12
14,AGTTTTATATTTCTGAGTACTTATGAATCTAGCTCG [XGTACX_site4330],6.82
15,TTTTTTTTTTTTTTTACACACATTTTAATAATTTTA [CACACA_site1492],7.01
16,TTGTAAAAAATTCATACACACGTCTTATTTTTAAGA [CACACA_site8390],6.83
17,ATTTTTTCTAAAAGTTGTACATTAAAACGTGTTCAC [XGTACX_site4803],7.16
18,AAGACTCTTTGTCCTTGTACATATATTTTTATGTTT [XGTACX_site3711],6.78
19,TTTATATAATATGAATGTACTTATATATTTATAGAC [XGTACX_site3261],7.6
20,TATTTATTCTCCAACACACACACATATATATATATA [CACACA_site2894],9.11
21,AAAATGAATTTAAAATGTACTTTTTCTAAAGAGTAA [XGTACX_site2337],6.96
22,TTATAGGTGCTTCGTAGTACATAAAAATAATATATA [XGTACX_site6979],8.2
23,GTTTATTCTTTTTATACACACCTTATTTGATTAACA [CACACA_site4567],7.32

row,Sequence,gcPBM binding intensity (ln)
1,TATACATAGAAACACACACACATATATATATATATA [CACACA_site2248],9.59
2,TTACTACTATATTATACACACATATATATATATATA [CACACA_site2621],9.83
3,TTTATTTATGTAGATACACACCCATGTTATATGGAG [CACACA_site9144],7.05
4,TTCTAATATTTTTGCACACTAAACAATAAATTTCCT [CACACA_site3944],7.66
5,TGTGAATAAATAAGCACACATAAACACATATATAAA [CACACA_site6114],7.02
6,TTAAAAGAAAAAATATGTACATATATTATATATATC [XGTACX_site7009],7.24
7,AGCAAAAATTAAATAAATAAATATATATATATATAT [TGCATGCA_negctrl_site449],9.26
8,GCAACATTCTAAGACACACACACACCCATATATATA [CACACA_site1053],7.46
9,AATGATGTCATAGGGGGTACACATAAATGTGAATGT [XGTACX_site6745],7.65
10,ATATTAATAATATATACACACATAAGTATTGTATAT [CACACA_site4095],6.97
11,AATAATATATATATATATATATATAGATATGTATAT [GTGCAC_negctrl_site653],7.68
12,ATGTTAACTAAATGTACACACCTATGTTGATGTAAC [CACACA_site5073],7.17
13,TATATATATAAAATATGTACATAAAATTATTTATTT [XGTACX_site7666],7.83
14,AAAGTTTAAATGAGAAGTACAAATTTTTGTTTTTAT [XGTACX_site1844],6.79
15,ATATAAAGTATGTTAGTGCACTTTTTTTTTTTTTTT [GTGCAC_site9419],11.2
16,GTAATACACATATAATGTACTCATAAATATATTTAT [XGTACX_site4041],7.06
17,TCATAGGAGAACTTTTGTACAGATTTTTCTTTTTTT [XGTACX_site2853],6.51
18,AATATAAGTGTACATACACACTTTACAATATCATAT [CACACA_site5634],7.13
19,AATTTTATATATATATGTACATATTTATATGCTTAT [XGTACX_site8180],7.09
20,TTTCTATATCTTTCAACACACAAATTTTTTTTTCCA [CACACA_site108],6.98
21,ACATACATACCCCCACGTACGTACCGAAACACCACC [XGTACX_site1982],8.09
22,CAAAGAACTTATAGGGTGCTTTACTTATAAGTAAAT [GTGCAC_site9579],8.52
23,ATAGCACATTTTTAAGCACACGTTTATTATATATAT [CACACA_site6084],7.32

row,Sequence,gcPBM binding intensity (ln)
1,CAAAAATATATTTTTTGTACACAAAAAAAAAATAAA [XGTACX_site5229],7.27
2,AAAACTATTAAATGTAGTACATAATTATTGAAATAA [XGTACX_site8716],6.93
3,AAATACATATCATGTAGTACATATATATGTAGGTTA [XGTACX_site5392],6.96
4,TGTTGTATTTTTACAACACACATTTAATCCATTTAA [CACACA_site1507],6.79
5,CTTATATATTGGGATAGTACTTTTAACTAAATAGAA [XGTACX_site5900],7.02
6,ACTTTACGAATTAAGAGTACTTATTTAAGGAACACT [XGTACX_site7919],7.08
7,TTTTTATTGAGATACTTATATAATTTTATGAATAAA [XGTACX_negctrl_site311],6.76
8,TTTTTTTGCTCTTTTTATATATATATATATATATAT [GTGCAC_negctrl_site70],8.94
9,TTTGAAAAGTTGAAATGTACACATTTACACATATTT [XGTACX_site1641],6.76
10,ATCAACATTATGGTTAGTACTTAGTGAATTGTTAAT [XGTACX_site4926],7.01
11,GTGTAATATATTTTTCGTACATATTATATATATATA [XGTACX_site1675],8.69
12,TTATACACCTTTCATTGTACATATAATTTATATTCT [XGTACX_site8685],7.35
13,TCTTCTAATTTACCTACACACAGGAGATATATAAAT [CACACA_site6276],7.28
14,TATATATATATATATTGTACAAAATATTTATATGTT [XGTACX_site436],9.43
15,TAATTAATTTATTAGTTGCACTGTACCATTAGAGTA,8.72
16,GTTCATAAATTAAACACACACACACCCCTGGATACC [CACACA_site3331],7.78
17,TATATTACTTTGTGTTGTACGGAAATATATATATAT [XGTACX_site4309],8.7
18,AATATTCAATATATATATATATATAATATTAATATA [GTGCAC_negctrl_site571],7.29
19,ATATTTTATTTAATTACACACAATATTGCAATTTGT [CACACA_site669],7.12
20,AAGGATTTTTTATACACACACTAACTAATGTATATA [CACACA_site7163],6.91
21,TAATACCATAACAAGTGTACATAAATAATTATTGTA [XGTACX_site4949],7.11
22,AAAAAAAATATAATATGTACATATCTATATATCAAC [XGTACX_site4881],6.99
23,TATACATATGAAAATACACACATACATACAGATATA [CACACA_site5002],7.01

row,Sequence,gcPBM binding intensity (ln)
1,TTGTTTTTAATATCGGTGCAATGGAAAGAAAAGAAG [GTGCAC_site9494],9.41
2,TACGTAAAATAATTGAGTACATAATTATATATATAT [XGTACX_site5361],8.92
3,AAAAATAATCATTAGGTGCAAAAAATATATATATAT [GTGCAC_site9631],9.96
4,TTTTTTTTTTTAAATTCACACAATATATAAATATTG [CACACA_site5201],6.84
5,AACAAATATATATGTAGTACATGTTGTAGATAATTT [XGTACX_site24],7
6,AGAAAAATTATTTTGCGTACATATTTACAATAAAAA [XGTACX_site2144],7.05
7,TTTAAAATATATAGTACACACGTGAACACAAATACA [CACACA_site4392],7.13
8,GTACATTATTTATATACACACAAAGAAAAATATACA [CACACA_site3452],7.14
9,TAAAGCATATTATAAACACACACTGTATAAAGATAT [CACACA_site296],6.98
10,TTTTTCAGAAAAGAAACACACATATTTATATTTATA [CACACA_site7167],6.7
11,TATATGTATATATATTAACACACAAAAAAAAAAAAA [CACACA_site8534],7.04
12,TAAACAAATAAATAAACACACAATATCTGTATTTAT [CACACA_site5978],6.83
13,TAACCTATAATATTCACACACATATAAATATTATAG [CACACA_site6592],7.01
14,ATTAAATCGATATATACACACATGTTTGGTATATTC [CACACA_site7285],6.78
15,TTAAAATAAAGTAGTGGTACAAAAAAAAAAAAAAAA [XGTACX_site6322],7.08
16,AGTAATAGTTTGTGCACACTCAAGTATATCATATAT [CACACA_site4034],9.56
17,TTTTACTTAAAACACACACACACAAAAAAAAAAAAA [CACACA_site947],7.08
18,TTTTTTATTTTAAAAACATGCATAAAATATAATAGT [TGCATGCA_site762],7.49
19,AGATAAAAAAAGTACACACACACATATATTTATATA [CACACA_site7437],7.48
20,TATATATTTAATTTCACACATATATATAATTATTAT [CACACA_site4936],7.03
